From the supplement of paper PMC6135742
Structures can show the parent of a compound that is named as a salt. ± gives the standard deviation of the averaged measurements. The full ranking holds about 2,600 compounds; the median of “MBP+ mature oligodendrocyte number relative to DMSO vehicle control” is about -0.34, and the highest 2% start at about 13. Some of the results follow.
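Further: 10 µM single dose with 3-day oligodendrocyte differentiation.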

The compounds below were run on jimpy (Plp1 jimpy) mouse iPSC-derived oligodendrocyte progenitor cells (assay: MBP+ mature oligodendrocyte number relative to DMSO vehicle control (SDs above negative control mean); higher = more surviving jimpy oligodendrocytes (rescue)). Conditions: 10 µM; 3 days.
`N[C@@]1(C(=O)O)CS(=O)(=O)[C@H]2[C@H](C(=O)O)[C@H]21` was tested, and the “MBP+ mature oligodendrocyte number” value was 2.94.
With `C[C@H]1O[C@@H](Oc2c(-c3cc(O)c(O)c(O)c3)oc3cc(O)cc(O)c3c2=O)[C@@H](O)[C@@H](O)[C@@H]1O` [Myricitrin] the “MBP+ mature oligodendrocyte number” value was 0.507.
`C=C1/C(=C\C=C2/CCC[C@]3(C)[C@@H]([C@H](C)/C=C/[C@H](C)C(C)C)CC[C@@H]23)C[C@@H](O)C[C@@H]1O` [Doxercalciferol] was tested, and the “MBP+ mature oligodendrocyte number” value was 8.14.
In the case of `Cc1ccc2c(=O)c3cccc(CC(=O)O)c3oc2c1C` [DMXAA (Vadimezan)], the “MBP+ mature oligodendrocyte number” value is reported as -0.107.
For `CC(C)(C)c1ccc(C(O)CCCN2CCC(C(O)(c3ccccc3)c3ccccc3)CC2)cc1` (stereo unspecified) [Terfenadine], the “MBP+ mature oligodendrocyte number” value was under -3.85.
With `COc1cc(NC(C)CCCN)c2ncccc2c1` (stereo unspecified) [Primaquine Diphosphate] the “MBP+ mature oligodendrocyte number” value was under -6.35.
With `CC(=O)CC/C=C(\C)CC/C=C(\C)CC/C=C(\C)CCC=C(C)C` [Geranylgeranylacetone] the “MBP+ mature oligodendrocyte number” value was 3.99.
For `COCCOc1cc2ncnc(Cl)c2cc1OCCOC`, the “MBP+ mature oligodendrocyte number” value was -0.247.
`CC[N+](CC)(CC)CC(=O)Nc1c(C)cccc1C` [Lidocaine N-ethyl bromide quaternary salt] was tested, and the “MBP+ mature oligodendrocyte number” value was -1.11.
`Cc1ccc([N+](=O)[O-])cc1S(=O)(=O)N(C)/N=C/c1cnc2ccc(Br)cn12` was tested, and the “MBP+ mature oligodendrocyte number” value was under -6.7.
`CC/C(=C(/CC)c1ccc(O)cc1)c1ccc(O)cc1` [Diethylstilbestrol] was tested, and the “MBP+ mature oligodendrocyte number” value was 5.2.
In the case of `CC1=C(/C=C/C(C)=C/C=C/C(C)=C\C(=O)O)C(C)(C)CCC1` [Isotretinoin], the “MBP+ mature oligodendrocyte number” value is reported as 0.196.
For `CC1=C(/C=C/C(C)=C/C=C/C(C)=C\C(=O)O)C(C)(C)CCC1` [13-cis-retinoic acid], the “MBP+ mature oligodendrocyte number” value was -0.283.
With `Nc1nc(OCc2ccccc2)c2nc[nH]c2n1` [O6-benzylguanine] the “MBP+ mature oligodendrocyte number” value was -1.14.
With `NC1C=CC=C(C(=O)O)C1` (stereo unspecified) [Gabaculine hydrochloride] the “MBP+ mature oligodendrocyte number” value was 0.235.
For `CC(C)(Sc1ccc(CCN(CCCCC2CCCCC2)C(=O)NC2CCCCC2)cc1)C(=O)O`, the “MBP+ mature oligodendrocyte number” value was -1.38.
For `CSc1ccc2c(c1)N(CCC1CCCCN1C)c1ccccc1S2` (stereo unspecified) [Thioridazine hydrochloride], the “MBP+ mature oligodendrocyte number” value was under -3.85.
For `NC(N)=Nc1nc(CSCC/C(N)=N/S(N)(=O)=O)cs1` [Famotidine], the “MBP+ mature oligodendrocyte number” value was -0.0723 ± 0.81.
In the case of `COc1ccc(-c2ccc3c(N4CCOCC4)nc(N4C[C@@H](C)O[C@@H](C)C4)nc3n2)cc1CO`, the “MBP+ mature oligodendrocyte number” value is reported as -6.17.
For `Nc1ccc(CCNc2ncnc3c2ncn3C2OC(CO)C(O)C2O)cc1` (stereo unspecified) [N6-2-(4-Aminophenyl)ethyladenosine], the “MBP+ mature oligodendrocyte number” value was -1.49.
`C/C(=C\c1ccc(C(=O)O)cc1)c1ccc2c(c1)C(C)(C)CCC2(C)C` [TTNPB (Arotinoid Acid)] was tested, and the “MBP+ mature oligodendrocyte number” value was 2.43.
